Assay [1] has as its target T1, GST-SEC13 (human, UniProt P55735 1-322).
T1 construct: SEC13, human ORF from pDONR223 (Sigma-Aldrich MISSION TRC3 Human ORF Collection), stop codon introduced, cloned into pDEST15; also called GST-SEC13 WT; SEC13 WT
T1 sequence (looked up): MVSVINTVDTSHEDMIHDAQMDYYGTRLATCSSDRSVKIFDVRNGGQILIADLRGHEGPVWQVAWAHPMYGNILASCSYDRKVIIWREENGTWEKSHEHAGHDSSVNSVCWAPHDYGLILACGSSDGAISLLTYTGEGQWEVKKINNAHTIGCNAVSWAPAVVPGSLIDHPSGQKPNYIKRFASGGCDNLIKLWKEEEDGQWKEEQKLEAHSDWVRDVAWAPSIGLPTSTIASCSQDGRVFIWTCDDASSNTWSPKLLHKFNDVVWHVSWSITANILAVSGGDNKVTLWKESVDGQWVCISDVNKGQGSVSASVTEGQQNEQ
Nature of the assay: pull-down; GST-SEC13 or GST-SEH1L from bacterial lysate held on Glutathione Sepharose beads and washed; recombinant His10-SUMO2 added 2 h at 4°C in 50 mM tris pH 7.5, 150 mM NaCl, 0.5% NP40, 5 mM imidazole, BSA 0.1 mg/ml; five washes; SUMO2/3 immunoblot. The following applies: both partners purified. (In general: A western blot detects proteins with antibodies after separation by electrophoresis.)

For assay [2], the target named is T2, GST-SEC13 P59A-Y79A-I151A-R216A-Q236A (human, UniProt P55735 1-322, P59A | Y79A | I151A | R216A | Q236A).
T2 construct: SEC13 mutant, synthesised in pDONR207 (GenScript), cloned into pDEST15; also called SEC13 P59A-Y79A-I151A-R216A-Q236A mutant
T2 sequence (looked up): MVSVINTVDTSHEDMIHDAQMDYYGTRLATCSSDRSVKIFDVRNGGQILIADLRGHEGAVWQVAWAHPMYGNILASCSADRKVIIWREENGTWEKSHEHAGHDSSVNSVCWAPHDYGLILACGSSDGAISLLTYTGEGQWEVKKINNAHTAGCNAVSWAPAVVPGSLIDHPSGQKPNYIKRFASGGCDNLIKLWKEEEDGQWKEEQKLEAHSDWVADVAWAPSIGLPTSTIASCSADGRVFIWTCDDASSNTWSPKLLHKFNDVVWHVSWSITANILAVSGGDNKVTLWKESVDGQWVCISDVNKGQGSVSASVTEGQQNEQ
The assay is described as above. The following applies: both partners purified.

B1: His10-SUMO2 WT (natural protein)
chain: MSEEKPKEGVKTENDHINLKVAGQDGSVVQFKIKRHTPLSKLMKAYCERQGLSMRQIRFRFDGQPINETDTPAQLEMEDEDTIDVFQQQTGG
notes: […]; gene synthesised (GenScript), cloned into pET-11a; also called 10xHis-tagged SUMO2; source: E. coli Rosetta, purified (gravity-flow Ni-NTA)
In the case of B1, the binding result in assay [1] and in assay [2] was “binds” throughout.

B2: His10-SUMO2 ∆D84-G92 (domain or fragment)
chain: not shown
notes: gene synthesised (GenScript); source: E. coli Rosetta, purified (gravity-flow Ni-NTA)
As to B2, in assay [1], the binding result is “binds”.

Source of the values: paper PMC12077520, “Interaction networks of SIM-binding groove mutants reveal alternate modes of SUMO binding and profound impact on SUMO conjugation” (Science Advances, 2025).
